Our source for the binding signal values is PMC12136788.

Some of the results follow.

Sequences and labels used below:
B1: chr1:228494639:228494729:+|3pUTR|ENSG00000168159|msi1_unk|FALSE|overlapping (ssRNA)
RNA: GGGAGUUCUACAGUCCGACGAUCGCCAUCGUGUCUCAUCUUGCUGUUAUCUCUAGCUCUUUCCCUCCUCCCAUUUCCUUUAGUAGUUGAAUUUUGCAAAGCUUGUAGCAGUAGCUCAGUUGCCUGCAGCAUCCUUGUGUGUAGCAACAGAGGAUUGAGCAUCA
B2: chr18:67510860:67510961:-|3pUTR|ENSG00000171451|msi1|total|mutant (ssRNA)
RNA: GGGAGUUCUACAGUCCGACGAUCACUAAUAAUACUUACCAACCCACUUUGUGGAUAUGAAUCAGAAGAGUUUGUUUAUUCUUCCGUGUGUGUGUGUGUGUGCACGCGUGUAUGUGUUCAGUGUUGUUUGCACAGAGAGAUUGUCAACAGAGGAUUGAGCAUCA
B3: chr1:203741488:203741589:+|3pUTR|ENSG00000058668|msi1|FALSE|unique (ssRNA)
RNA: GGGAGUUCUACAGUCCGACGAUCGCCAGUUCAUGUCCCUGACUCUCACCUCCCAUUAGAUAAAUGAAGCCCACCCCCCUUUCUAGAGUGAUGAGAGUCAAGAAGAGGGGAUGUAUGAACGGCCAAAUUCCCAUGUGAGAGGAACAACAGAGGAUUGAGCAUCA
B4: ENSG00000070961:be:win_5201|3pUTR|ENSG00000070961|bound_else_gene|NA|bound_elsewhere_windowed (ssRNA)
RNA: GGGAGUUCUACAGUCCGACGAUCUUUAGAUGCAAUAAUUAACCAUAUGCUAGAAUGCCCACCUCUAAGCCAAUUGGAUUCUUUAGCUCUCUUUUUCUUUCCUUCAUCUACCUUCUUCUCUUUUUUGCCUCUGUCUUUACCCUUCAACAGAGGAUUGAGCAUCA
B5: chr3:98799561:98799662:-|CDS|ENSG00000057019|msi1|total|mutant (ssRNA)
RNA: GGGAGUUCUACAGUCCGACGAUCUUCAGUUGGUCAGCCCUCCACAUCCACUUUCAAGGCUACGGGGAACCAACCUCCCCCACCCGUGGGAACUUACAAUACACUUCUCUCCAGGACUGACAGCUGCUCCUCAGCCCAGGCCCACAACAGAGGAUUGAGCAUCA
B6: ENSG00000115464:stop:overlap|stop_codon|ENSG00000115464|stop_codon|NA|stop_codon (ssRNA)
RNA: GGGAGUUCUACAGUCCGACGAUCUCAGAAAGGAACAUACUCUCAAAAUAUUUACUUAUAUCAAUUCCUGGACACAGAGGAUGUAGAAGUACCAUUGCAUUUGCUUCGUUAUGUAUGUUUGUUUUGUGGGAAAAAUGGCCUUUCCAACAGAGGAUUGAGCAUCA
B7: chr1:61462620:61462721:+|3pUTR|ENSG00000162599|unk|FALSE|unique (ssRNA)
RNA: GGGAGUUCUACAGUCCGACGAUCCUGUGGGCGUCCAUUCUUAUUCAACUAAAUCUCCACAGGUUUUUUGAGCUGGUGUGGAUUAGUUUAACUCUUGUAUUCAACCAUUAGUGCUACCACCUUCUCACAUUACAAUACAAUUACCAACAGAGGAUUGAGCAUCA
B8: chr1:235808650:235808751:-|CDS|ENSG00000143669|unk|FALSE|unique (ssRNA)
RNA: GGGAGUUCUACAGUCCGACGAUCUGGAAAUGGGAUGCUUUAAAGGCUUAUCAGAACUUUGUUUUUGAAGAAGACAGAUUACAUAGUAUACAGAUUGCAAAUCACAUUUGCAAUUUAAUCCAGAAAGGCAAUAUAGUUGUUCAGCAACAGAGGAUUGAGCAUCA
B9: chr4:76160418:76160736:-|3pUTR|ENSG00000138760|msi1|FALSE|unique (ssRNA)
RNA: GGGAGUUCUACAGUCCGACGAUCAGUUCCUUCCUCAGUUUCAGUUCUUUCCAGUGUUUUGUAGCUCACUGUCACUCACUGAAUAGAGAAACGUGUGCCCUAUACUUCCUGUGACAAUCAUUUUGCUGACAGAAUGAUGGAUGUCAACAGAGGAUUGAGCAUCA
B10: chr15:38352922:38353023:+|3pUTR|ENSG00000166068|msi1|FALSE|unique (ssRNA)
RNA: GGGAGUUCUACAGUCCGACGAUCUACAUAUAAAUUUAUUUCUUUUGCAGAGCAUUAUAUUACUGGAUGUUUAAUUUACAAAAUAGUUGGGUAAAUGUUCCAACAAACUUUAAAGUACCUUGAAGUCAAAUUGUCUGUUUUUGUCAACAGAGGAUUGAGCAUCA
B11: chr13:49308649:49310813:-|three_prime_utr|ENSG00000102547|control|control|control (ssRNA)
RNA: GGGAGUUCUACAGUCCGACGAUCGUCAUCAUUCUUGGGAAGACUUUGGAGGUGCCUAUUUUUUCUGCUGUAAUUGUUCUGGGUAGAUGGAGUAUAAACAUUUGAAUGGAAAAAAAUUAACCUAGAAUAAUAUAUUCAUUUUAGCAACAGAGGAUUGAGCAUCA
B12: chr11:119314942:119315043:-|CDS|ENSG00000076706|msi1|total|mutant (ssRNA)
RNA: GGGAGUUCUACAGUCCGACGAUCGGGAGACUCUGCCCCUCUUGCCGCCCAGGACCCUUCUCCUCCUCUGUGUCUCCUCCCAUCCGGUCCACAAGGAGAAGCGGACGCUCAUCUUCCGUGUGCGCCAGGGCCAGGGCCAGAGCGCAACAGAGGAUUGAGCAUCA
B13: chr19:54923508:54923872:-|three_prime_utr|ENSG00000167634|control|control|control (ssRNA)
RNA: GGGAGUUCUACAGUCCGACGAUCCGGGAUUCGGGUCUCUAAGAUGUCUUAUGAAUGCAGGUCAGAGGGUCACAUGUUAACACUAGAGUCUGUCGAGAGGUAGGAUUUGACACUGGUUUUCUCACUAUUUUUGGGAGAUUCUGCCAACAGAGGAUUGAGCAUCA
B14: chr9:130136078:130136182:+|3pUTR|ENSG00000148358|msi1_unk|FALSE|overlapping (ssRNA)
RNA: GGGAGUUCUACAGUCCGACGAUCAGUCCAAGCAAAUCAUCCCCAUUAAAAAGCUUUUCCUGUAGGCUAGUAGGAUUUCUAAAUAGAUGAAUUCAACAGACUUGGUCCCCAUAGUCCAAGAGUAUGUAUGUGAAGAAAGUGAGCCAACAGAGGAUUGAGCAUCA
B15: chr10:128104542:128104643:-|CDS|ENSG00000148773|msi1|total|mutant (ssRNA)
RNA: GGGAGUUCUACAGUCCGACGAUCAAGUGAUGAGAAAAAUAUCAACACAUUUGUGGAAACUCCAGUGCAGAAACUGGACCUGCCCGGAAAUUUACCUGGCAGCAAGAGACAGCCACAGACUCCUAAGGAAAAGGCUGAGGCUCUCAACAGAGGAUUGAGCAUCA
B16: chr4:17843545:17843646:+|3pUTR|ENSG00000109805|msi1|total|mutant (ssRNA)
RNA: GGGAGUUCUACAGUCCGACGAUCCUGUGCGCUUCCACGUUACUUUGGCCUGUAUUAAAGCAGCCGAGCAGCAUCAGUUAUUACCGUCCAGAAAAAGUGUGCAUCAGUCAGUCACACAGAUUUAUCACAAUCUGAGGUGGGCCUCAACAGAGGAUUGAGCAUCA
B17: chr6:122453778:122453910:-|CDS|ENSG00000111897|unk|FALSE|unique (ssRNA)
RNA: GGGAGUUCUACAGUCCGACGAUCCCUUUCAGUGUGGUUUUAUGUAGGCAUGGCAGGUGCCUUUUGUUUCAUCCUCAUACAACUAGUCUUACUUAUUGAUUUUGCACAUUCAUGGAAUGAAUCGUGGGUUGAAAAAAUGGAAGACAACAGAGGAUUGAGCAUCA
B18: chr7:65954205:65954306:+|CDS_3pUTR|ENSG00000196715|msi1_unk|FALSE|overlapping (ssRNA)
RNA: GGGAGUUCUACAGUCCGACGAUCCAUCUGCAUCGUCACGUACGUGCUGAACUUCCUUCUUCUCAUUAUCAACUACAAACGACUAGUUUACUUGAACGAGGCCUGGAAGCGGCAGCUGCAACCCAAGCAGGACUGACGCCCGACCAACAGAGGAUUGAGCAUCA
B19: chr19:57572896:57572997:-|CDS|ENSG00000083817|unk|total|mutant (ssRNA)
RNA: GGGAGUUCUACAGUCCGACGAUCCAUCGGAGAAUCCACACUGGAGAAAGGCCUUAUGUGUGUGGUCAGUGUGGGAAAUCAUUCCGCCAAAGAGCCACCCUCAUUAAACAUCACAGAGUUCACACUGGAGAAAGGCCUUACGAGCAACAGAGGAUUGAGCAUCA
B20: chr1:89935720:89935824:+|3pUTR|ENSG00000171492|msi1|total|mutant (ssRNA)
RNA: GGGAGUUCUACAGUCCGACGAUCUACAAGAUAAUGCAUUUCCGGAGCCGAUACAUCUUUUAAAAUAAAACAGAGAGGAUGCACCGAAGGCUGACCGAAGACAUAACUGAAUGUUCAAUGUUUGCCGGGUUUUAAGUCAUUCAUCAACAGAGGAUUGAGCAUCA
B21: chr18:9283235:9283336:+|3pUTR|ENSG00000101745|msi1|total|mutant (ssRNA)
RNA: GGGAGUUCUACAGUCCGACGAUCCUGAUGGUUCAACCAGAGGUCUGGGAAACCGCACUGUUGGCCCAAACAGAACAGGCUUUCCGAAGAUAAAAGCGACAAGAAGGAAUCUGGUGAAUUUCCGUCAUCCCAGCUUUUCCGUCUCAACAGAGGAUUGAGCAUCA
B22: chr18:9859767:9859850:+|3pUTR|ENSG00000168461|msi1_unk|total|mutant (ssRNA)
RNA: GGGAGUUCUACAGUCCGACGAUCUUGUUACCUAACCAACCUUCACUGAAAGGCAAAUUCCGUUCAGGAGGUCCGUUUUCCGCCCGCUUUGGAAGUAAGCCUUUAUUUAUUACUUUUUGGAGGAAAUCAGAGAAGUGUCAAUGGCAACAGAGGAUUGAGCAUCA

The target in this assay is MSI1 full-length (mouse, UniProt Q61474 1-362). In words: nsRBNS (natural sequence RNA bind-n-seq); RBNS binding buffer (assumed for nsRBNS): 25 mM Tris pH 7.5, 150 mM KCl, 3 mM MgCl2, 0.01% Triton X-100, 500 ug/ml BSA, 20 U/ml SUPERase-In, 4 C; UNK is unkempt and MSI1 is Musashi-1; names of the RNAs are library labels; protein concentration not given here; high values mean tight binding.
Sequence of UniProt Q61474 (Q61474 whole entry): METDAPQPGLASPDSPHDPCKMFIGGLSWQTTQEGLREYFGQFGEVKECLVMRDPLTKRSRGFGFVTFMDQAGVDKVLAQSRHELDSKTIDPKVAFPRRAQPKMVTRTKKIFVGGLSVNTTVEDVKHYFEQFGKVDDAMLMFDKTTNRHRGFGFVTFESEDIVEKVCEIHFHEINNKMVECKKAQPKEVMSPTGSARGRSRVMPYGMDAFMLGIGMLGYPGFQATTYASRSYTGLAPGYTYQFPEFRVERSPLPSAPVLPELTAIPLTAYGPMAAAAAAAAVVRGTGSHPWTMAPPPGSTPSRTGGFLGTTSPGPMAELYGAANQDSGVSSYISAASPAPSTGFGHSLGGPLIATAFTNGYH
B1 came in with a binding signal of 21.5 enrichment R.

B2 yielded a binding signal of 0.341 enrichment R.

For the molecule B3, the binding signal is 1.45 enrichment R.

For the molecule B4, the binding signal amounted to 5.72 enrichment R.

In turn, B5 returned a binding signal of 0.482 enrichment R.

For the molecule B6, the binding signal came to 2.23 enrichment R.

B7 yielded a binding signal of 3.44 enrichment R.

For B8, the binding signal was determined as 0.77 enrichment R.

B9 displayed a binding signal of 0.321 enrichment R.

Take B10: the binding signal was 5.24 enrichment R.

B11 yielded a binding signal of 1.23 enrichment R.

For B12, the binding signal came out at 0.721 enrichment R.

The molecule B13 yielded a binding signal of 0.551 enrichment R.

In turn, B14 gave a binding signal of 4.96 enrichment R.

As to B15, the binding signal is 0.365 enrichment R.

B16 returned a binding signal of 0.782 enrichment R.

As to B17, the binding signal came out at 0.637 enrichment R.

With B18, the binding signal amounted to 0.633 enrichment R.

With B19, the binding signal stood at 0.303 enrichment R.

As to B20, the binding signal came out at 0.273 enrichment R.

For the molecule B21, the binding signal was 0.296 enrichment R.

The molecule B22 returned a binding signal of 0.376 enrichment R.
